# Reference: the supplement of paper PMC8728848
# This is one part of the list.
# B1: Mermaid3 (Stilbonema majum) (protein)
# chain: MGSSHHHHHHSSGLVPRGSHMAASGWLRSPQGTVVKLYRRSLSWSKADEFCKDVDGRLVVDRTADMHLFLIKNVLKEKKSRVWVGLRRTASHSRTWIWSDGTRQNEGDLDANLWLRDEPNDAAGEEECALFMYSPWEKAWGLNDYLCRGGCRNYQFICEKWIR
# Key:
# Assay in all cases: glycan array binding signal (z-score within array); higher = stronger binding
# Conditions in all cases: glycan notation: IUPAC condensed, linker removed
# Fuc(a1-2)Gal = molecular target: Fuc(a1-2)Gal
# Procedure, shortened: (§1)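 From the Consortium for Functional Glycomics database, 3228 arrays were curated, keeping only those whose protein sequence was available. Binding is given as a within-array Z-score averaged across arrays sharing a protein sequence and across linkers. Negative Z-scores can be read as non-binding.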
# Fuc(a1-2)Gal(b1-3)GalNAc = molecular target: Fuc(a1-2)Gal(b1-3)GalNAc
# Procedure, shortened: as §1
# [1] = molecular target: Fuc(a1-2)Gal(b1-3)GalNAc(a1-3)[Fuc(a1-2)]Gal(b1-4)Glc
# Procedure, shortened: as §1
# [2] = molecular target: Fuc(a1-2)Gal(b1-3)GalNAc(a1-3)[Fuc(a1-2)]Gal(b1-4)GlcNAc
# Procedure, shortened: as §1
# [3] = molecular target: Fuc(a1-2)Gal(b1-3)GalNAc(b1-3)Gal
# Procedure, shortened: as §1
# [4] = molecular target: Fuc(a1-2)Gal(b1-3)GalNAc(b1-3)Gal(a1-4)Gal(b1-4)Glc
# Procedure, shortened: as §1
# [5] = molecular target: Fuc(a1-2)Gal(b1-3)GalNAc(b1-4)[Neu5Ac(a2-3)]Gal(b1-4)Glc
# Procedure, shortened: as §1
# Fuc(a1-2)Gal(b1-3)GlcNAc = molecular target: Fuc(a1-2)Gal(b1-3)GlcNAc
# Procedure, shortened: as §1
# [6] = molecular target: Fuc(a1-2)Gal(b1-3)GlcNAc(b1-2)Man(a1-3)[Fuc(a1-2)Gal(b1-3)GlcNAc(b1-2)Man(a1-6)]Man(b1-4)GlcNAc(b1-4)GlcNAc
# Procedure, shortened: as §1
# [7] = molecular target: Fuc(a1-2)Gal(b1-3)GlcNAc(b1-2)Man(a1-3)[Fuc(a1-2)Gal(b1-3)GlcNAc(b1-2)Man(a1-6)]Man(b1-4)GlcNAc(b1-4)[Fuc(a1-6)]GlcNAc
# Procedure, shortened: as §1
# [8] = molecular target: Fuc(a1-2)Gal(b1-3)GlcNAc(b1-3)Gal(b1-4)Glc
# Procedure, shortened: as §1
# [9] = molecular target: Fuc(a1-2)Gal(b1-3)GlcNAc(b1-3)GalNAc
# Procedure, shortened: as §1
# [10] = molecular target: Fuc(a1-2)Gal(b1-3)GlcNAc(b1-3)[Fuc(a1-2)Gal(b1-3)GlcNAc(b1-6)]GalNAc
# Procedure, shortened: as §1
# [11] = molecular target: Fuc(a1-2)Gal(b1-3)GlcNAc(b1-3)[Gal(b1-4)GlcNAc(b1-6)]Gal(b1-4)Glc
# Procedure, shortened: as §1
# [12] = molecular target: Fuc(a1-2)Gal(b1-3)GlcNAc(b1-3)[Neu5Ac(a2-6)Gal(b1-4)GlcNAc(b1-6)]Gal(b1-4)Glc
# Procedure, shortened: as §1
# [13] = molecular target: Fuc(a1-2)Gal(b1-3)GlcNAc6S
# Procedure, shortened: as §1
# [14] = molecular target: Fuc(a1-2)Gal(b1-3)[Fuc(a1-4)]GlcNAc
# Procedure, shortened: as §1
# [15] = molecular target: Fuc(a1-2)Gal(b1-3)[Fuc(a1-4)]GlcNAc(b1-2)Man(a1-3)[Fuc(a1-2)Gal(b1-3)[Fuc(a1-4)]GlcNAc(b1-2)Man(a1-3)]Man(b1-4)GlcNAc(b1-4)GlcNAc
# Procedure, shortened: as §1
# [16] = molecular target: Fuc(a1-2)Gal(b1-3)[Fuc(a1-4)]GlcNAc(b1-2)Man(a1-3)[Fuc(a1-2)Gal(b1-3)[Fuc(a1-4)]GlcNAc(b1-2)Man(a1-6)]Man(b1-4)GlcNAc(b1-4)[Fuc(a1-6)]GlcNAc(b1-4)[Fuc(a1-6)]GlcNAc
# Procedure, shortened: as §1
# [17] = molecular target: Fuc(a1-2)Gal(b1-3)[Fuc(a1-4)]GlcNAc(b1-3)[Fuc(a1-3)[Gal(b1-4)]GlcNAc(b1-6)]Gal(b1-4)Glc
# Procedure, shortened: as §1
# [18] = molecular target: Fuc(a1-2)Gal(b1-3)[Fuc(a1-4)]GlcNAc(b1-3)[Gal(b1-4)GlcNAc(b1-6)]Gal(b1-4)Glc
# Procedure, shortened: as §1
# Fuc(a1-2)Gal(b1-4)Glc = molecular target: Fuc(a1-2)Gal(b1-4)Glc
# Procedure, shortened: as §1
# Fuc(a1-2)Gal(b1-4)Glc6S = molecular target: Fuc(a1-2)Gal(b1-4)Glc6S
# Procedure, shortened: as §1
# Fuc(a1-2)Gal(b1-4)GlcNAc = molecular target: Fuc(a1-2)Gal(b1-4)GlcNAc
# Procedure, shortened: as §1
# [19] = molecular target: Fuc(a1-2)Gal(b1-4)GlcNAc(b1-2)Man
# Procedure, shortened: as §1
# [20] = molecular target: Fuc(a1-2)Gal(b1-4)GlcNAc(b1-2)Man(a1-3)[Fuc(a1-2)Gal(b1-4)GlcNAc(b1-2)Man(a1-6)]Man(b1-4)GlcNAc(b1-4)GlcNAc
# Procedure, shortened: as §1
# [21] = molecular target: Fuc(a1-2)Gal(b1-4)GlcNAc(b1-2)Man(a1-3)[Fuc(a1-2)Gal(b1-4)GlcNAc(b1-2)Man(a1-6)]Man(b1-4)GlcNAc(b1-4)[Fuc(a1-6)]GlcNAc
# Procedure, shortened: as §1
# [22] = molecular target: Fuc(a1-2)Gal(b1-4)GlcNAc(b1-2)[Fuc(a1-2)Gal(b1-4)GlcNAc(b1-4)]Man(a1-3)[Fuc(a1-2)Gal(b1-4)GlcNAc(b1-2)Man(a1-6)]Man(b1-4)GlcNAc(b1-4)GlcNAc
# Procedure, shortened: as §1
# [23] = molecular target: Fuc(a1-2)Gal(b1-4)GlcNAc(b1-3)Gal(b1-4)GlcNAc
# Procedure, shortened: as §1
# [24] = molecular target: Fuc(a1-2)Gal(b1-4)GlcNAc(b1-3)Gal(b1-4)GlcNAc(b1-2)Man(a1-3)[Fuc(a1-2)Gal(b1-4)GlcNAc(b1-3)Gal(b1-4)GlcNAc(b1-2)Man(a1-6)]Man(b1-4)GlcNAc(b1-4)GlcNAc
# Procedure, shortened: as §1
binder,measurement,setting,value
B1,glycan array binding signal (z-score),Fuc(a1-2)Gal,0.736
same,glycan array binding signal (z-score),Fuc(a1-2)Gal(b1-3)GalNAc,-0.827
same,glycan array binding signal (z-score),[1],-0.81
same,glycan array binding signal (z-score),[2],-0.568
same,glycan array binding signal (z-score),[3],-0.484
same,glycan array binding signal (z-score),[4],-0.196
same,glycan array binding signal (z-score),[5],-0.518
same,glycan array binding signal (z-score),Fuc(a1-2)Gal(b1-3)GlcNAc,-0.49
same,glycan array binding signal (z-score),[6],2.35
same,glycan array binding signal (z-score),[7],0.566
same,glycan array binding signal (z-score),[8],-0.249
same,glycan array binding signal (z-score),[9],-0.508
same,glycan array binding signal (z-score),[10],0.961
same,glycan array binding signal (z-score),[11],-0.653
same,glycan array binding signal (z-score),[12],-0.703
same,glycan array binding signal (z-score),[13],-0.429
same,glycan array binding signal (z-score),[14],-0.224
same,glycan array binding signal (z-score),[15],0.726
same,glycan array binding signal (z-score),[16],-0.465
same,glycan array binding signal (z-score),[17],-0.531
same,glycan array binding signal (z-score),[18],-0.697
same,glycan array binding signal (z-score),Fuc(a1-2)Gal(b1-4)Glc,-0.578
same,glycan array binding signal (z-score),Fuc(a1-2)Gal(b1-4)Glc6S,0.26
same,glycan array binding signal (z-score),Fuc(a1-2)Gal(b1-4)GlcNAc,-0.526
same,glycan array binding signal (z-score),[19],0.063
same,glycan array binding signal (z-score),[20],-0.201
same,glycan array binding signal (z-score),[21],0.548
same,glycan array binding signal (z-score),[22],-0.628
same,glycan array binding signal (z-score),[23],-0.525
same,glycan array binding signal (z-score),[24],0.368
